Data: article PMC8491413
No constants are given. Whether binding was seen depends on the method and setting. Binding seen in cells or lysates may run through a third protein. Some results given as binding are weak or reduced against the parent protein; the word gives no strength.

Amino acid sequences for entries named in this document (tags omitted). A change or cut given only in a name is not applied to a line headed by its entry. Residues count along the entry.
UniProt P03496: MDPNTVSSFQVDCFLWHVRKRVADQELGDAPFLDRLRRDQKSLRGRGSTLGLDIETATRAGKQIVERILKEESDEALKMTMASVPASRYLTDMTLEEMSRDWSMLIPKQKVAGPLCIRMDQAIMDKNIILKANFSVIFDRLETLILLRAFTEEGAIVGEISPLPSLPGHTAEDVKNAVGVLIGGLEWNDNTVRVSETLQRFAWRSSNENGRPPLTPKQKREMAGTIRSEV
NS1-RBD-Myc-His (amino acids 1-73) (influenza A/PR/8 (PR8) strain): residues 1-73 of P03496
UniProt Q13114: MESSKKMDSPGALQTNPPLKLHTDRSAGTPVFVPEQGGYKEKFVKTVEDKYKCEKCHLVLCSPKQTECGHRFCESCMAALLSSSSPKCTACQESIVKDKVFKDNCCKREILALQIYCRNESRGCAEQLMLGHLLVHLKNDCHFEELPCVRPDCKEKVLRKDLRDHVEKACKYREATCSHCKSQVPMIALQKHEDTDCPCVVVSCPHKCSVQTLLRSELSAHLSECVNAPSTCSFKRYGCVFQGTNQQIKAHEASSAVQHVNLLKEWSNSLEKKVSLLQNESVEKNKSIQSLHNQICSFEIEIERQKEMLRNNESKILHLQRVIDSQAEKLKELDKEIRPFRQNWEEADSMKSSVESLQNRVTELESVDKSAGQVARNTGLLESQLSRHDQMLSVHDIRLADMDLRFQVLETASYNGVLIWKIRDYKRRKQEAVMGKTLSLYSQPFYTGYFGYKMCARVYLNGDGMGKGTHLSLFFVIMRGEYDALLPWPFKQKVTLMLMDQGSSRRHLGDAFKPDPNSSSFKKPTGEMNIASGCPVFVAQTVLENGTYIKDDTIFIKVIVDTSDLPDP
UniProt Q7Z434: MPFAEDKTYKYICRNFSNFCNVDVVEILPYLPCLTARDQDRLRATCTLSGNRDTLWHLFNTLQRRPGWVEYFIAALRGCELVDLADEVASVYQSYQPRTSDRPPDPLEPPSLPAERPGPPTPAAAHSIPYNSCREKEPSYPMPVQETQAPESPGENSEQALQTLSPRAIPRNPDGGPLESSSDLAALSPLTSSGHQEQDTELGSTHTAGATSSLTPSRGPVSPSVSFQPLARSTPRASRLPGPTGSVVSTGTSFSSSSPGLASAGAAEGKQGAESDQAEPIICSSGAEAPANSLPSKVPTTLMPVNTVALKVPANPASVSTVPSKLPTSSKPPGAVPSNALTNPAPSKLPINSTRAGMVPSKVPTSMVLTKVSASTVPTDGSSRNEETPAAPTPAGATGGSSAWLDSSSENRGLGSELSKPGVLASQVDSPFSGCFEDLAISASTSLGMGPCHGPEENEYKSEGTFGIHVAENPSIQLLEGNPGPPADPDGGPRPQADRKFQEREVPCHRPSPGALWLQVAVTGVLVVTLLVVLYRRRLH

How the values were obtained:
[1] = target: NS1-Myc-His (nonstructural protein 1 of influenza A/PR/8, full length) (influenza A/PR/8 (PR8) strain) (UniProt P03496); test: co-IP
[2] = target: NS1-RBD-Myc-His (amino acids 1-73) (influenza A/PR/8 (PR8) strain) (UniProt P03496); test: co-IP

Flag-TRAF3Δ1-258 (from UniProt Q13114 259-568) (domain or fragment)
binding [1]: binds

Flag-TRAF3Δ1-399 (from UniProt Q13114 400-568) (domain or fragment)
binding [1]: binds

Flag-TRAF3Δ274-568 (from UniProt Q13114 1-273) (domain or fragment)
binding [1]: no binding

His-MAVS (from UniProt Q7Z434 1-540)
binding [1]: binds | binding [2]: binds
